In PubChem BioAssay AID493208 (National Center for Advancing Translational Sciences (NCATS), 2011):
Among all 44,000 compounds or so, about 340 (0.77%) were called active. About 5% were inconclusive and are not listed. Calls come from the whole dose curve; as a rule, active = well fitted inhibition curve with a large enough effect; inconclusive = small, poorly fitted or top-dose-only effect; inactive = flat fitted curve, though single readings scatter. Some of the results follow.

Test: Acumen qHTS Assay for Inhibitors of the mTORC1 Signaling Pathway in MEF (Tsc2-/-, p53-/-) Cells: Sytravon;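 note: plate controls were DMSO for no effect and rapamycin for full effect; nearly all actives have a fitted effect of over 50% in size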
Conditions: phospho-rpS6 immunofluorescence/PI, 24 h; series mostly up to 38.3 µM; activity change, negative = inhibition: at the top concentration
Method in brief: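 Readout is phospho-S6 Alexa 488 signal normalized to PI per well, reported as % active cells with thresholds set from rapamycin (7.5 nM) and DMSO controls. Cells: Tsc2-/-, p53-/- MEFs, 24 hrs compound at 37 C; PI cell number serves as viability.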

Row | Compound | activity change, negative = inhibition
1 | COc1ccc(-c2nc(CCNC(=O)c3ccccc3)cs2)cc1OC | inactive: -8.56%
2 | Cc1cccc(C)c1NC(=O)CCCn1c(=O)c2cccn2c2ccccc21 | inactive: 8.81%
3 | O=C1C(=O)N(C2CCNCC2)CCN1Cc1ccccc1 | inactive: 2.18%
4 | CCOC(=O)c1c(S(=O)(=O)NCC(=O)Nc2ccc(C(C)=O)cc2)c(C)n(C)c1C | inactive: 0.371%
5 | CCOc1ccc(-n2cc(-c3ccccc3)c3c(NC4CCCCC4)ncnc32)cc1 | inactive: 5.05%
6 | Cc1nn(-c2ccccc2)c(OC(=O)c2ccccc2Cl)c1S(=O)(=O)c1ccccc1 | inactive: 1.23%
7 | COc1ccc2c(c1)c1c(c(=O)n(-c3cccc(Cl)c3)c(=O)n1CC(=O)NCC1CCCO1)n2C (centres undefined) | inactive: -7.51%
8 | Cc1ccc(CNC(=O)CCS(=O)(=O)c2ccc3c(c2)CC(C)N3C(=O)C2CC2)cc1 (centres undefined) | inactive: 0.907%
9 | CCOc1ccc(NC(=O)CSC2=Nc3ccccc3C3=NC(CCC(=O)NCc4cccs4)C(=O)N23)cc1 (centres undefined) | inactive: -4.87%
10 | COCCNC(=O)Cn1cnc2sc(C)c(S(=O)(=O)N3CCN(c4ccccc4OC)CC3)c2c1=O | inactive: 0%
11 | COc1cc(CNCCSc2nnnn2C)ccc1OCc1ccc(F)cc1 | inactive: -22.2%
12 | CC(CNC(=O)c1nnc(Cc2cccc(F)c2)o1)c1ccccc1 (centres undefined) | inactive: 3.5%
13 | CCOC(=O)c1[nH]c(C)c(CCC(=O)Nc2cccc(C(F)(F)F)c2)c1C | inactive: 1.6%
14 | COc1ccc(N2CC(NC(=O)C3CC3)CC2=O)cc1 (centres undefined) | inactive: 0.671%
15 | CCC(NC(=O)Nc1ccc(OC)c(OC)c1)c1c(-n2cccc2)sc2c1CCN(C)C2 (centres undefined) | inactive: 1.07%
16 | CC(=O)c1cccc(NC(=O)[C@H](Cc2ccccc2)N2Cc3ccccc3C2=O)c1 | inactive: -10.5%
17 | COc1ccccc1C(=O)NCCSc1c(C)[nH]c2ccccc12 | inactive: 8.5%
18 | O=c1oc2ccc3ccccc3c2cc1-c1nnc(Nc2ccc(Cl)cc2Cl)s1 | inactive: -5.22%
19 | COc1cccc(NC(=O)CSc2nc(=O)n(Cc3ccccn3)c3c2CCC3)c1 | inactive: 3.27%
20 | CCc1ccc(NC(=O)Cn2c(=O)c(CNc3ccccc3)cc3cc(OC)c(OC)cc32)cc1 | inactive: -0.56%
21 | Cc1cccc(NC(=O)C2CCCN(S(=O)(=O)c3c(C)[nH]c(=O)[nH]c3=O)C2)c1C (centres undefined) | inactive: -1.7%
22 | COc1ccc(-c2nc3ccccc3o2)cc1NC(=O)C(C)(C)Oc1ccc(Br)cc1 | inactive: -3.42%
23 | COc1cccc(N2CCN(C(=O)CCS(=O)(=O)c3ccc4c(c3)CC(=O)N4C)CC2)c1 | inactive: 0%
24 | O=C(Cn1c(=O)oc2cc(S(=O)(=O)N3CCCC3)ccc21)NCc1ccc(Cl)cc1 | inactive: -0.993%

Row | Compound | activity change, negative = inhibition
25 | CCN(CC)C(=O)Cn1c(=O)n(Cc2ccc(C(=O)NCc3ccc(C)cc3)cc2)c(=O)c2ccccc21 | inactive: -26.1%
26 | Cc1ncc(CO)c2c1Oc1nc(-c3ccccc3)nc(SCC(=O)N3CCCCC3)c1C2 | inactive: -1.57%
27 | COc1ccc(NC(=O)Cn2c(=O)n(-c3cccc(C)c3)c(=O)c3c2c2cc(C)ccc2n3C)cc1Cl | inactive: -3.05%
28 | CCOc1cc2sc(N3CCC(C(=O)Nc4ccccc4C(=O)OC)CC3)nc2cc1Br | inactive: -4.58%
29 | CCOCCCNC(=O)c1cc2c(=O)n(C)c3ccccc3c2n1C | inactive: -11.7%
30 | Cc1ccc(NC(=O)c2cn3c4c(ccc(Cl)c4c2=O)OC(C)C3)cc1C (centres undefined) | inactive: -1.21%
31 | COc1ccc(C(=O)Nc2cc(-c3ccccc3)nn2-c2ccccc2)cc1 | inactive: 5.15%
32 | CCOC(=O)c1sc(NC(=O)C(C)Oc2ccc(OC)cc2)c(C(=O)OCC)c1C (centres undefined) | inactive: -5.08%
33 | O=C(COCc1cc(-c2cccs2)on1)Nc1cc(Cl)ccc1O | inactive: 0.238%
34 | Cc1ccc(NC(=O)COc2ccc(-c3nn(C)c(=O)c4ccccc34)cc2)cc1 | inactive: -16.6%
35 | CCOC(=O)c1cccc(NC(=O)c2cc3cc4cc(OC)ccc4nc3s2)c1 | inactive: -0.521%
36 | COc1ccc(C)cc1NC(=O)CN1C(=O)COc2ccc(S(=O)(=O)N3CCOCC3)cc21 | inactive: -3.92%
37 | CCOc1ccccc1NC(=O)Cn1c(=O)oc2cc(S(=O)(=O)NCc3ccccc3)ccc21 | inactive: 0.352%
38 | Cc1ccc(CNC(=O)C2CCN(S(=O)(=O)Cc3ccccc3)CC2)cc1 | inactive: 0.477%
39 | CN(C)c1ccc(CNC(=O)C2CCCN(S(=O)(=O)c3ccc4c(ccn4C)c3)C2)cc1 (centres undefined) | inactive: -22.6%
40 | COC(=O)C1=C(C)NC(=O)C1(NC(=O)c1ccc(Cl)cc1)C(F)(F)F (centres undefined) | inactive: -0.0392%
41 | CCN1CCC(N(Cc2cccc(OC)c2)C(=O)Nc2cccc(C)c2C)CC1 | inactive: -3.17%
42 | CC1=Nc2cc(C(=O)NCc3ccc(C)cc3)ccc2Sc2ccc(Cl)cc21 | inactive: -3.67%
43 | COc1ccc(C2N=C(N)Nc3nc4ccccc4n32)c(OC)c1OC (centres undefined) | inactive: -7.09%
44 | O=C(CSc1nc2c([nH]c3ccccc32)c(=O)n1-c1ccc(Cl)cc1)NC1CCCCC1 | inactive: -0.523%
45 | CCCCNC(=O)Nc1ccc2c(c1)N(C)C(=O)c1ccccc1S2 | inactive: -0.0839%
46 | CCN(CC)C(=O)CN1C(=O)COc2ccc(S(=O)(=O)N3CCOCC3)cc21 | inactive: -17.4%
47 | CCc1ccc(NC(=O)N2CCN(Cc3nc4ccc(C)cc4o3)CC2)cc1 | inactive: 2.11%
48 | COc1ccc(NC(=O)Cn2nnc(C(=O)NCc3ccco3)c2N)c(OC)c1 | inactive: 1.82%

Row | Compound | activity change, negative = inhibition
49 | COc1ccccc1NC(=O)c1c(C)cc(C)nc1SCC(=O)Nc1ccc(C)cc1 | inactive: -1.28%
50 | Cc1cc(Nc2cccc(Br)c2)n2c(nc3ccccc32)c1C#N | inactive: -4.78%
51 | Cc1ccc(N2CCN(C(=O)c3cn(C)c4ccc(S(=O)(=O)N5CCCC5)cc4c3=O)CC2C)cc1 (centres undefined) | inactive: -6.05%
52 | CC(=O)Nc1ccc(S(=O)(=O)NCC2CCC(C(=O)NCc3ccccc3)CC2)cc1 (centres undefined) | inactive: -2.77%
53 | CCOc1ccc(NC(=O)CN2C(=O)c3ccccc3Sc3ccc(C(=O)OC)cc32)cc1 | inactive: 1.41%
54 | COc1cc(NC(=O)CSc2nc(-c3ccccc3)no2)cc(OC)c1 | inactive: 3.36%
55 | Cc1cc(C)cc(-n2c(SCC(=O)NCc3ccc(F)cc3)nc3c([nH]c4ccccc43)c2=O)c1 | inactive: -6.37%
56 | Cc1ccc2c(c1)c(=O)c1ccccc1n2CCCC(=O)Nc1ccc(Cl)c(Cl)c1 | inactive: 18.7%
57 | COc1cccc(NC(=O)CN2C(=O)CC(c3ccco3)Sc3ccccc32)c1 (centres undefined) | inactive: -0.0092%
58 | Cc1cccc(C)c1NC(=O)C(=O)NCC(c1cccnc1)N1CCc2ccccc21 (centres undefined) | inactive: 3.09%
59 | COC(=O)c1sc(-c2ccccc2)cc1NC(=O)c1cccc(Cl)c1 | inactive: -6.92%
60 | COc1cc(NC(=O)c2cc3c(=O)n(Cc4ccco4)ccc3nc2C)cc(OC)c1OC | inactive: -19.2%
61 | O=C(C1CCC(Cn2c(=O)c3sccc3n(Cc3ccccc3F)c2=O)CC1)N1CCOCC1 (centres undefined) | inactive: -2.19%
62 | CCOC(=O)c1c(NC(=O)c2ccc(S(=O)(=O)N(CC(C)C)CC(C)C)cc2)sc2c1CCN(CC)C2 | inactive: 8.06%
63 | O=C(Nc1nc(-c2ccccc2)ns1)c1ccc(Cl)cc1 | inactive: -9.53%
64 | CCOC(=O)N1CCc2c(sc(NCc3cccs3)c2C(=O)Nc2cc(Cl)ccc2OC)C1 | inactive: 0.726%
65 | CCN(CC)c1ccc(NC(=O)C2CCN(S(=O)(=O)c3ccc4c(c3)oc(=O)n4C)CC2)c(C)c1 | inactive: -1.99%
66 | Cc1cccc(NC(=O)C(NS(=O)(=O)c2cccc3nsnc23)c2ccccc2)c1C (centres undefined) | inactive: -3.81%
67 | COc1ccc(CN(C(=O)c2cc(=O)c3ccccc3o2)C2CCS(=O)(=O)C2)cc1OC (centres undefined) | inactive: -9.96%
68 | COc1ccccc1N1CCN(C(=O)c2ccc3c(c2)N(Cc2cc(C)ccc2C)C(=O)c2ccccc2S3(=O)=O)CC1 | inactive: -8.58%
69 | COc1ccc(N2CCN(S(=O)(=O)c3cc(Br)cc4c3N(C(=O)C3CC3)CC4)CC2)cc1 | inactive: 3.88%
70 | Cc1ccc(NC(=O)Cn2c(=O)n(Cc3ccco3)c(=O)c3sc4ccccc4c32)c(C)c1 | inactive: -5.15%
71 | CC(C)(C)OC(=O)N1CCC(c2c(C(=O)N3CCN(c4ccccn4)CC3)cnn2-c2cccc(F)c2)CC1 | inactive: 2.12%
72 | CCOC(=O)c1c(C)c(-c2ccccc2)n(CC(=O)NCc2ccccc2)c1C | inactive: 2.84%

Row | Compound | activity change, negative = inhibition
73 | COc1cc2c(=O)c(S(=O)(=O)c3ccc(C(C)C)cc3)cn(Cc3ccccc3C)c2cc1OC | inactive: -5.82%
74 | Cc1ccc(C(=O)NCC(c2ccco2)S(=O)(=O)c2ccccc2)cc1C (centres undefined) | inactive: 8.93%
75 | CCOC(=O)c1ccc(NS(=O)(=O)c2ccc3c(c2)CCN3C(=O)CC)cc1 | inactive: -1.66%
76 | O=C(CSc1nccn1Cc1ccccc1)Nc1nc2ccccc2s1 | inactive: 0%
77 | COc1ccc(OC)c(NC(=O)COCc2cc(-c3ccco3)on2)c1 | inactive: -0.311%
78 | O=C(Nc1cccc(C(F)(F)F)c1)c1cc2nc(-c3ccco3)cc(C(F)(F)Cl)n2n1 | inactive: -1.84%
79 | Cc1cc(C)c(Cn2c(=O)n(Cc3ccccc3)c(=O)c3c(C)c(C)sc32)c(C)c1 | inactive: 1.57%
80 | COc1ccc(-n2nc(C(=O)N3CCCCC3)c3c4ccccc4n(C)c3c2=O)cc1Cl | inactive: -3.45%
81 | Cc1ccc(S(=O)(=O)c2nnn(CC(=O)Nc3ccccc3C)c2N)cc1 | inactive: 2.06%
82 | CCOC(=O)c1cc(-c2ccccc2)n(CCC(=O)NCCc2ccc(C)cc2)c1C | inactive: -12.9%
83 | COc1ccc(OC)c(CNC(=O)c2cc3ccc4cccnc4c3[nH]2)c1 | inactive: -0.814%
84 | Cc1nn2c(=O)cc(COC(=O)c3ccc(NC(=O)COc4ccc(Cl)cc4)cc3)nc2s1 | inactive: 0%
85 | CC1CCN(S(=O)(=O)c2ccc3nc(NCc4ccc(F)cc4)ccc3c2)CC1 | inactive: -18.2%
86 | CCn1nnc2cc(C(=O)Nc3ccc(C)cc3Br)ccc21 | inactive: 0%
87 | O=C(Cn1nnc2sc(-c3ccccc3)cc2c1=O)Nc1cccc(C(F)(F)F)c1 | inactive: 4.76%
88 | CC(C)(C)OC(=O)N1CCC(c2nnc(SCc3ccccc3F)o2)CC1 | inactive: -15.7%
89 | CCOc1ccc(CCNc2ncnc3onc(-c4ccc(Cl)cc4)c23)cc1 | inactive: -8.42%
90 | COc1ccc(C)cc1NC(=O)C(=O)NCCc1csc2nc(-c3ccccc3F)nn12 | inactive: -14.7%
91 | CCc1ccccc1NC(=O)CN(c1ccc(OC)cc1)S(=O)(=O)c1c(C)n[nH]c1C | inactive: -18.5%
92 | Cc1cccc(-c2nc3scc(CCNS(=O)(=O)c4ccc(F)cc4C)n3n2)c1 | inactive: 1.77%
93 | Cc1oc(-c2ccccc2)nc1CNC(=O)NC1CCCCC1 | inactive: 13.9%
94 | COc1ccc(Nc2sc(C(=O)c3ccccc3)c(N)c2C(=O)Nc2cc(C)ccc2C)c(OC)c1 | inactive: -3.83%
